Measured values: PubChem BioAssay AID540317 (National Center for Advancing Translational Sciences (NCATS), 2011)
About 2,200 (0.56%) of roughly 390,000 compounds were called active. The inconclusive results got no clear call from the source; some entries with a clear call stand among them for comparison. The call rests on the fitted dose curve; in most records, active means well fitted inhibition curve with a large enough effect; inconclusive means small, poorly fitted or top-dose-only effect; inactive means no such curve, though single readings can be large or run the other way. Where the call is inconclusive, the potency comes from a doubtful curve fit.
Further: nearly all actives have a fitted effect of over 70% in size.
Potency means the concentration at half of the fitted maximal effect; tags describe the fitted curve by direction and shape.

What follows are compounds tested against Chromobox protein homolog 1 (Homo sapiens) (UniProt P83916) (assay: HTS for Inhibitors of HP1-beta Chromodomain Interactions with Methylated Histone Tails). Conditions: AlphaScreen HP1-beta / biotin-H3K9me3 peptide binding; series mostly up to 114 µM.
Sequence of UniProt P83916 (P83916 whole entry, looked up): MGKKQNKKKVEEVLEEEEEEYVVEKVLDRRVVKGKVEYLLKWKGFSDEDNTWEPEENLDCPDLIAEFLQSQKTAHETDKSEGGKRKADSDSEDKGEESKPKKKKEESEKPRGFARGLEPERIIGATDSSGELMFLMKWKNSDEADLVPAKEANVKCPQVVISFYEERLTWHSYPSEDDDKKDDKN
In short: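 HP1-beta protein (50 nM final) preincubated 30 min at room temperature with biotinylated H3(1-18)K9me3 peptide (50 nM) in PBS pH 7.4, 0.01% Tween-20, then compound added for 30 min. AlphaScreen streptavidin donor/nickel chelate acceptor beads (10 ug/mL final), 30 min dark, luminescence read.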
CCn1c2ccccc2c2nnc(SCCN3CCOCC3)nc21 was tested, and the Potency was “inactive”. For Cn1c(=O)n(C)c2cc(/C=N/N=C3/NC(=O)C(CC(=O)O)S3)ccc21 (configuration not stated), the Potency was inconclusive: 70.8 µM [inhibitor, single point]. Cc1cc(C)cc(-n2ccnc2SCC(=O)Nc2cccc3ccccc23)c1 was tested, and the Potency was inconclusive: 12.6 µM [inhibitor, partial curve]. Clc1cccc(Cl)c1/C=N\Nc1nccs1 was tested, and the Potency was “inactive”. For COc1ccc(Cl)cc1NC(=O)CN(C)C(=O)Cc1ccc2c(c1)CCC2, the Potency was “inactive”. CCn1c(/C=C2/C(=O)N(C)c3ccccc32)nc2ccccc2c1=O was tested, and the Potency was inconclusive: 39.8 µM [inhibitor, partial curve]. In the case of Cc1ccc(C(=O)Nc2cccnc2)cc1S(=O)(=O)N1CCCCC1, the Potency is reported as inconclusive: 7.94 µM [inhibitor, full curve, poor fit]. For C=CCSC1=N/C(=C\c2ccc(C)o2)C(=O)S1, the Potency was inconclusive: 17.8 µM [inhibitor, full curve, poor fit]. Brc1ccc(NC2=Nc3ccccc3CC2)cc1 was tested, and the Potency was inconclusive: 39.8 µM [inhibitor, single point]. Nc1nnc(SCC(=O)Nc2sc3c(c2C(=O)c2ccccc2)CCCC3)s1 was tested, and the Potency was inconclusive: 44.7 µM [inhibitor, partial curve]. In the case of O=[N+]([O-])c1ccccc1/C=N\N1CCN(c2ccccc2)CC1, the Potency is reported as inconclusive: 35.5 µM [inhibitor, partial curve]. In the case of COc1ccc(NC(=O)CCc2c(C)nc3c(c2C)c(=O)n(C)c(=O)n3C)c(OC)c1, the Potency is reported as “inactive”. COc1ccc(NC(=O)CC2CC3CCC2C3)cc1S(=O)(=O)N1CCOCC1 (configuration not stated) was tested, and the Potency was “inactive”. In the case of CCOC(=O)c1c(NC(=O)c2cc(-c3ccccc3OC)on2)sc(C)c1C, the Potency is reported as inconclusive: 10 µM [inhibitor, full curve, poor fit]. With S=c1[nH]nc(-c2cccs2)n1Cc1ccccc1 the Potency was “inactive”. With CCOc1ccc(-c2cn3c(n2)sc2cc(C(=O)NCCCN4CCCCCC4)ccc23)cc1 the Potency was “inactive”. With CCN(CC)C(=O)[C@H]1C[C@H](CC(=O)NC/C=C(\C)CCC=C(C)C)C(=O)N2CCc3c([nH]c4ccc(Cl)cc34)[C@]12C the Potency was “inactive”. Cc1ccnc(NS(=O)(=O)c2ccc(NC(=O)C3COc4ccccc4O3)cc2)n1 (configuration not stated) was tested, and the Potency was inconclusive: 7.94 µM [inhibitor, full curve]. For COc1ccc(Nc2nc(-c3sc(C)nc3C)cs2)c(OC)c1, the Potency was inconclusive: 28.2 µM [inhibitor, full curve]. For CN1CCN(CCCCOc2ccccc2-c2ccccc2)CC1, the Potency was inconclusive: 14.1 µM [inhibitor, full curve, poor fit]. For Cc1cccc(-n2ccnc2SCC(=O)Nc2cccc3ccccc23)c1, the Potency was inconclusive: 12.6 µM [inhibitor, partial curve]. In the case of CCOC(=O)N1CCN(CC(=O)Nc2ccc(OC)cc2)CC1, the Potency is reported as “inactive”. Nc1ccc(S(=O)(=O)c2cc(O)c3ccccc3c2O)cc1 was tested, and the Potency was active: 12.6 µM. In the case of CC(C)CC(=O)Nc1ccc2nc(SCC(=O)N3CCc4ccccc43)sc2c1, the Potency is reported as “inactive”. With CCOC(=O)c1c(-c2ccccc2)csc1NC(=O)C(C)NCCCN1CCOCC1 (configuration not stated) the Potency was inconclusive: 35.5 µM [inhibitor, partial curve]. In the case of CCN1CCc2c(sc(NC(=S)NC(=O)c3cccc(F)c3)c2C(N)=O)C1, the Potency is reported as inconclusive: 20 µM [inhibitor, full curve]. For CN1CCN(Cc2nc3ccccc3c(=O)n2Cc2nc(-c3ccc([N+](=O)[O-])cc3)cs2)CC1, the Potency was inconclusive: 17.8 µM [inhibitor, partial curve, poor fit]. S=C(c1ccc(-c2cccc(Cl)c2)o1)N1CCCCC1 was tested, and the Potency was inconclusive: 25.1 µM [inhibitor, partial curve]. CCOc1ccc(NC(=O)CN(C)CC(=O)NC2CCCc3ccccc32)cc1OCC (configuration not stated) was tested, and the Potency was inconclusive: 89.1 µM [inhibitor, partial curve, poor fit]. For CCCCCCn1c(SCC(=O)OC)nc2c1c(=O)[nH]c(=O)n2C, the Potency was inconclusive: 10 µM [inhibitor, full curve, poor fit]. With COc1cccc(/C=C2/NC(=O)N(CC(=O)Nc3ccc(C)cc3)C2=O)c1OCc1cccc(C(=O)O)c1 the Potency was inconclusive: 89.1 µM [inhibitor, single point]. With Oc1ccccc1N1CCN(C(c2ccccc2)c2ccccc2)CC1 the Potency was “inactive”. O=C(NCCCN1CCCC1)Nc1ccccc1[N+](=O)[O-] was tested, and the Potency was “inactive”. For CCn1c2ccccc2c2cc(CN3CCN(Cc4ccc(Br)cc4)CC3)ccc21, the Potency was inconclusive: 8.91 µM [inhibitor, full curve, poor fit]. For COc1cc2c(cc1OC)C1=NC(=O)CN1C(SCc1ccccc1)=N2, the Potency was inconclusive: 79.4 µM [inhibitor, single point]. For COC(=O)c1ccc(-c2nc(O)c(C)s2)cc1, the Potency was inconclusive: 20 µM [inhibitor, partial curve, poor fit]. In the case of O=C(NCCCN1CCOCC1)C1CCN(S(=O)(=O)c2cccc(C(F)(F)F)c2)CC1, the Potency is reported as “inactive”. With COc1ccc(Br)cc1/C=N/Nc1ccc(S(=O)(=O)Nc2ccccc2C(=O)O)cc1[N+](=O)[O-] the Potency was active: 22.4 µM. For COc1cccc(NCc2ccc([N+](=O)[O-])s2)c1, the Potency was inconclusive: 28.2 µM [inhibitor, full curve]. With COc1ccc(N2CCN(Cc3nc4c(c(=O)[nH]c(=O)n4C)n3CCCc3ccccc3)CC2)cc1 the Potency was inconclusive: 50.1 µM [inhibitor, partial curve]. In the case of O=C(NCc1ccccn1)c1nn(-c2ccccc2)c(=O)c2ccccc12, the Potency is reported as inconclusive: 89.1 µM [inhibitor, partial curve, poor fit]. With N#CC(C#N)=C(Nc1ccc(F)cc1)SCc1cccc(Br)c1 the Potency was inconclusive: 50.1 µM [inhibitor, partial curve, poor fit]. In the case of O=C(Nc1ccc(Cl)cc1Cl)c1ccc(Br)o1, the Potency is reported as “inactive”. CC(/C=C1\SC(=S)N(NC(=O)c2ccccc2C)C1=O)=C\c1ccccc1 was tested, and the Potency was inconclusive: 39.8 µM [inhibitor, single point]. COc1ccccc1C(=O)NCCC(=O)NCc1cccs1 was tested, and the Potency was inconclusive: 89.1 µM [inhibitor, partial curve, poor fit]. For Cc1cc(=O)[nH]c(/N=C(\N)Nc2ccc(Oc3ccccc3)cc2)n1, the Potency was “inactive”. With CCCCSc1nc2sc3c(c2c(=O)n1-c1ccccc1C)CC(C)(C)OC3 the Potency was “inactive”. For CCC(C)NCCOCCOc1ccc(Cl)c(C)c1C (configuration not stated), the Potency was inconclusive: 44.7 µM [inhibitor, partial curve, poor fit]. In the case of COc1cc2c(cc1NCc1ccc3c(c1)OCO3)oc1ccccc12, the Potency is reported as inconclusive: 22.4 µM [inhibitor, partial curve, poor fit]. CCn1c(N)c(C(=O)Nc2ccccc2C(=O)OC)sc1=S was tested, and the Potency was inconclusive: 6.31 µM [inhibitor, full curve]. CCCn1cnc2c(=S)nc(N)[nH]c21 was tested, and the Potency was inconclusive: 79.4 µM [inhibitor, partial curve]. O=C(CN1CCSCC1)N/N=C/c1ccc(F)cc1F was tested, and the Potency was inconclusive: 50.1 µM [inhibitor, partial curve]. In the case of COc1ccc(C2NCCc3c2[nH]c2ccccc32)cc1CSc1nc2ccccc2s1 (configuration not stated), the Potency is reported as inconclusive: 25.1 µM [inhibitor, single point]. For CC(C)(C)NCCOCCOc1ccc(Cl)cc1C(C)(C)C, the Potency was inconclusive: 14.1 µM [inhibitor, partial curve, poor fit]. With O=C(NCCc1ccccc1)N1c2ccccc2Sc2ccccc21 the Potency was inconclusive: 39.8 µM [inhibitor, single point]. In the case of CC(Sc1nc(C(C)(C)C)cc(-c2ccccc2)c1C#N)C(=O)Nc1ccccc1 (configuration not stated), the Potency is reported as inconclusive: 35.5 µM [inhibitor, partial curve]. With CCN1CCN(Cc2ccc(NC(=O)c3ccc(C)c(/C=C/c4cnc(Nc5cc(N6CCNCC6)nc(C)n5)cn4)c3)cc2C(F)(F)F)CC1 the Potency was inconclusive: 56.2 µM [inhibitor, partial curve, poor fit]. In the case of c1ccc(NNC2=NCCS2)cc1, the Potency is reported as inconclusive: 89.1 µM [inhibitor, single point]. In the case of COc1ccccc1NC(=O)C1=C(C)Nc2nc(SC)nn2C1c1ccccc1Cl (configuration not stated), the Potency is reported as “inactive”. With CC(C)(C)c1ccc(O)c(N=Cc2cc3c(cc2[N+](=O)[O-])OCO3)c1 the Potency was inconclusive: 22.4 µM [inhibitor, full curve]. In the case of COc1cccc2c1C(=O)c1c(O)c3c(c(O)c1C2=O)C[C@@](O)(C(=O)CO)C[C@@H]3O[C@H]1C[C@H](N)[C@@H](O)[C@H](C)O1, the Potency is reported as inconclusive: 79.4 µM [inhibitor, partial curve]. In the case of O=C(CN1CCCN(Cc2cccc(Cl)c2)S1(=O)=O)Nc1ccc2c(c1)OCCO2, the Potency is reported as “inactive”. For CN(CC(=O)Nc1n[nH]c(=S)s1)S(=O)(=O)c1cccc2cccnc12, the Potency was inconclusive: 22.4 µM [inhibitor, full curve]. In the case of COc1cc(CNCc2ccc3c(c2)OCO3)c([N+](=O)[O-])cc1OC, the Potency is reported as inconclusive: 25.1 µM [inhibitor, partial curve, poor fit]. For COc1ccc(CNC(=O)CCS(=O)(=O)c2ccc(Br)cc2)cc1, the Potency was inconclusive: 79.4 µM [inhibitor, partial curve]. Cc1c(NC(=O)C(C)OC(=O)c2cc(Cl)nc(Cl)c2)c(=O)n(-c2ccccc2)n1C (configuration not stated) was tested, and the Potency was “inactive”. In the case of COc1cc(-c2nc(SCC(=O)Nc3ccc4c(c3)OCO4)c(-c3ccccc3)[nH]2)cc(OC)c1OC, the Potency is reported as inconclusive: 31.6 µM [inhibitor, full curve].
